# In PMC5473941, “Cryo-EM Reveals How Human Cytoplasmic Dynein Is Auto-inhibited and Activated” (Cell, 2017):
# Molecular target: the molecule itself
# Assay: cryo-EM structure; phi-particle of full-length dynein; freshly purified dynein at about 0.15 mg/ml in GF150 (25 mM HEPES pH 7.4, 150 mM KCl, 1 mM MgCl2, 5 mM DTT, 0.1 mM ATP) on carbon-coated gold grids; whole particle 15 Å, tail 8.4 Å, motor domain dimer 3.8 Å
protein,measurement,value
"human dynein light chain Robl, as a subunit of the dynein complex (natural protein, dynein light chain Robl/LC7 (DYNLRB1), human; Stood in the assays within the whole dynein complex; also called LC7; DYNLRB1; source: Sf9, co-expressed and purified as part of the dynein complex (IgG Sepharose, TEV cleavage, SEC)) not shown",binding result,binds
